Reference: PubChem BioAssay AID2451 (National Center for Advancing Translational Sciences (NCATS), 2010)
The campaign covered roughly 290,000 compounds. About 2,100 (0.72%) were called active. Inconclusive results, whose numbers are uncertain, are shown with a selection of clear calls. Calls follow the shape of the dose curve; as a rule, active = well fitted inhibition curve with a large enough effect; inconclusive = small, poorly fitted or top-dose-only effect, or effect the other way; inactive = flat fitted curve, though single readings scatter. A potency beside an inconclusive call is a rough fit, not a confirmed value.

target: Fructose-bisphosphate aldolase (Giardia intestinalis (strain ATCC 50803 / WB clone C6)) (UniProt A8B2U2); assay: qHTS Assay for Inhibitors of Fructose-1,6-bisphosphate Aldolase from Giardia Lamblia; conditions: purified Giardia FBPA; activity, negative = inhibition: at 59.6 µM (top of the series) unless noted; also: nearly all actives have a fitted effect of over 55% in size
UniProt A8B2U2, sequence (A8B2U2 whole entry, looked up): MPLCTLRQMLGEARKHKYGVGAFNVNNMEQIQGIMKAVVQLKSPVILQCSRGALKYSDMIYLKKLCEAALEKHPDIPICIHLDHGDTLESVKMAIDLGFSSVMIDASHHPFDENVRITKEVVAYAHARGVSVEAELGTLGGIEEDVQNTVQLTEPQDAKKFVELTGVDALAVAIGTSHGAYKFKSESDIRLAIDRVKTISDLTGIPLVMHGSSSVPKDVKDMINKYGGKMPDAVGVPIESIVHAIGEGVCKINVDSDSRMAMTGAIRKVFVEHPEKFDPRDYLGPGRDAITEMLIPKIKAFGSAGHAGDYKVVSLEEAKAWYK
Procedure, shortened: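 40 nM FBPA preincubated 10 min at RT with compound (up to 57.5 uM final), then substrate plus GAPDH/TPI/NAD/arsenate coupling and diaphorase/resazurin added. Fluorescence read after 20 min at RT, 525/598 nm.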
% is scaled to controls: 0 for no effect and ±100 for the full control effect; potency is read from the fitted curve at half-maximal effect; tags tell the direction and shape of the fitted curve.

| SMILES | Potency | activity, negative = inhibition |
| --- | --- | --- |
| CN1CCc2nc(SCC(=O)OC(C)(C)C)c(C#N)cc2C1 | inconclusive: 15.8 µM [inhibitor, partial curve] | – |
| CCCCCC(=O)NNC(=S)NC(=O)c1cccc([N+](=O)[O-])c1 | inconclusive: 5 µM [inhibitor, partial curve] | – |
| O=C(NC1CCCC1)c1cc(S(=O)(=O)N2CCOCC2)c(Cl)cc1Cl | – | inactive: -0.0305% |
| Cn1ccnc1SCc1cc(=O)[nH]c2ccccc12 | inconclusive: 19.9 µM [inhibitor, partial curve] | – |
| C[C@H](NC(=O)c1nc[nH]c1C(=O)NCc1ccccc1)C(=O)OC(C)(C)C | inconclusive: 19.9 µM [inhibitor, single point] | – |
| NC(=S)N/N=C/c1cccc(/C=N/NC(N)=S)c1 | inconclusive: 15.8 µM [inhibitor, single point] | – |
| S=c1[nH]nc(CCc2ccccc2)n1Cc1ccccc1 | inconclusive: 1.12 µM [inhibitor, full curve] | – |
| CCOC(=O)Cc1c(C)[nH]c(=S)[nH]c1=O | inconclusive: 12.6 µM [inhibitor, partial curve] | – |
| COc1ccc(C2C3=C(CCCC3=O)N(CC(=O)O)C3=C2C(=O)CCC3)cc1Cl | – | inactive: -18.8% |
| CCOc1ccc(CNC2CCCCCCC2)cc1OC | inconclusive: 39.8 µM [inhibitor, single point] | – |
| CC(C)c1ccc(CN(C)CC(O)c2ccccc2)cc1 (stereo unspecified) | inconclusive: 19.9 µM [inhibitor, partial curve] | – |
| CCc1ccc(/C=C/C(=O)c2cc(Br)ccc(=O)c2O)cc1 | inconclusive: 44.6 µM [activator, single point] | – |
| Cc1cc(C(=O)CS(=O)(=O)c2ccccc2)cc(C)c1OC(=O)N(C)C | – | inactive: 0.965% |
| COc1ccc(NC(=O)C2CCC(=O)N2S(=O)(=O)c2ccc(C)cc2)cc1Cl (stereo unspecified) | – | inactive: -6.98% |
| Cc1cc(Cl)c(OCCn2ccnc2)c(Br)c1 | inconclusive: 15.8 µM [inhibitor, partial curve] | – |
| CCOC(=O)C1CCCN(CC(=O)Nc2cccc(C(C)=O)c2)C1 (stereo unspecified) | inconclusive: 17.7 µM [inhibitor, partial curve] | – |
| CCCC1=Nc2cc(C(=O)N3CCC(C(N)=O)CC3)ccc2Sc2ccccc21 | – | inactive: -1.72% |
| CCOc1cc(C=C2C(=O)NC(=O)NC2=O)cc([N+](=O)[O-])c1O | inconclusive: 17.7 µM [inhibitor, partial curve] | – |
| CCCn1nc([N+](=O)[O-])c(C(C#N)c2nc3ccccc3o2)c(Cl)c1=O (stereo unspecified) | – | inactive: 1.4% |
| CCN(CC)CCCN1C(=O)C(=O)/C(=C(/O)c2ccc(OC)c(Cl)c2)C1c1ccco1 (stereo unspecified) | inconclusive: 5.62 µM [inhibitor, full curve, poor fit] | – |
| COc1ccc(-c2csc(NC(=O)c3cc(=O)c4ccccc4o3)n2)cc1OC | – | inactive: -1.32% |
| Cc1nc2ccc(NC(=O)c3cccs3)cc2s1 | – | inactive: 9.46% |
| COc1ccc(-n2nnnc2SCC(=O)c2ccc(O)c(O)c2)cc1 | inconclusive: 0.5 µM [inhibitor, full curve] | – |

| SMILES | Potency | activity, negative = inhibition |
| --- | --- | --- |
| CN(CC(=O)NCCCc1ccccc1)Cc1ccc(Br)cc1 | inconclusive: 25.1 µM [inhibitor, partial curve] | – |
| COc1ccc(OC)c(N2C(=O)/C(=C/c3ccco3)C(=O)NC2=S)c1 | inconclusive: 12.6 µM [inhibitor, partial curve] | – |
| CCOC(=O)c1c(NC(C)=O)sc2c1CCC(C=O)=C2Sc1ccccc1 | inconclusive: 17.7 µM [inhibitor, single point] | – |
| NC(=O)C1=C[C@@H](c2csc3ccccc23)C[C@@H](OCCCCO)O1 | inconclusive: 17.7 µM [inhibitor, partial curve] | – |
| Cc1c(Cl)c([N+](=O)[O-])nn1Cc1ccc(C(=O)N/N=C\c2cccc(Br)c2)o1 | inconclusive: 17.7 µM [inhibitor, single point] | – |
| CCOC(=O)c1c(CN(CC)CC)n(-c2ccccc2)c2ccc(O)cc12 | – | inactive: 15.8% |
| COc1ccc(Cl)cc1NC(=O)CN(C(=O)c1ccco1)C1CCCCC1 | inconclusive: 14.1 µM [inhibitor, partial curve] | – |
| COc1cccc(Oc2nc(-c3ccccc3O)nc3ccccc23)c1 | – | inactive: 3.23% |
| CCOC(=O)N1CCN(C(=S)NC(=O)c2ccc(Br)cc2)CC1 | inconclusive: 15.8 µM [inhibitor, partial curve] | – |
| CCOC(=O)CSc1nc2sc3c(c2c(=O)[nH]1)CC(C)(CC)OC3 (stereo unspecified) | inconclusive: 35.4 µM [inhibitor, single point] | – |
| O=C(Cc1cccs1)N/N=C/C=C/c1ccco1 | inconclusive: 15.8 µM [inhibitor, single point] | – |
| O=C1C(=O)N(CCS(=O)(=O)c2ccccc2)c2ccc(Cl)cc21 | inconclusive: 12.6 µM [inhibitor, partial curve] | – |
| CCn1nc(C)c(NC(=O)c2ccc(Cl)cc2)c1C | inconclusive: 12.6 µM [inhibitor, partial curve] | – |
| Cc1c(NC(=S)NC(=O)c2cc3ccccc3o2)cccc1C(=O)O | – | inactive: -29.7% |
| CCOC(=O)C1=C(CSc2nc3c(cc2C#N)CCC3)OC(N)=C(C#N)C1c1ccccc1 (stereo unspecified) | inconclusive: 19.9 µM [inhibitor, single point] | – |
| O=C(NC(=S)N1CCN(Cc2ccccc2)CC1)c1cccnc1 | active: 17.7 µM | – |
| C=C(C)Cn1c(-c2ccncc2)n[nH]c1=S | inconclusive: 2.81 µM [inhibitor, partial curve] | – |
| CN1CCN(C(=S)c2ccc(N(C)C)cc2)CC1 | active: 15.8 µM | – |
| CC(=O)c1c(N2CCOCC2)[nH]c(-c2ccccc2)nc1=S | inconclusive: 35.4 µM [activator, single point] | – |
| CCOc1ccc(C2Sc3ccccc3NC3=C2C(=O)OC3)cc1 (stereo unspecified) | – | inactive: 3.48% |
| On1c(-c2ccc(Cl)cc2)nc2ccccc21 | inconclusive: 15.8 µM [inhibitor, single point] | – |
| COc1ccc(CCNc2nc(-c3ccccn3)cs2)cc1OC | inconclusive: 28.1 µM [inhibitor, single point] | – |
| CCCc1c(OCCCCc2nn[nH]n2)ccc(C(C)=O)c1O | inconclusive: 22.3 µM [activator, single point] | – |
